# In PubChem BioAssay AID624417 (National Center for Advancing Translational Sciences (NCATS), 2012):
# Hit rate of the full screen: of about 410,000 compounds, about 6,400 (1.6%) were called active. The shares of active, inactive and inconclusive entries below differ from those in the screen. Calls follow the shape of the dose curve; as a rule, active = well fitted inhibition curve with a large enough effect; inconclusive = small, poorly fitted or top-dose-only effect; inactive = no such curve, though single readings can be large or run the other way. No potency is given beside an inconclusive call; the fits are too rough.
# Molecular target: Glucagon-like peptide 1 receptor (Homo sapiens) (UniProt P43220)
# Sequence of UniProt P43220 (P43220 whole entry, looked up): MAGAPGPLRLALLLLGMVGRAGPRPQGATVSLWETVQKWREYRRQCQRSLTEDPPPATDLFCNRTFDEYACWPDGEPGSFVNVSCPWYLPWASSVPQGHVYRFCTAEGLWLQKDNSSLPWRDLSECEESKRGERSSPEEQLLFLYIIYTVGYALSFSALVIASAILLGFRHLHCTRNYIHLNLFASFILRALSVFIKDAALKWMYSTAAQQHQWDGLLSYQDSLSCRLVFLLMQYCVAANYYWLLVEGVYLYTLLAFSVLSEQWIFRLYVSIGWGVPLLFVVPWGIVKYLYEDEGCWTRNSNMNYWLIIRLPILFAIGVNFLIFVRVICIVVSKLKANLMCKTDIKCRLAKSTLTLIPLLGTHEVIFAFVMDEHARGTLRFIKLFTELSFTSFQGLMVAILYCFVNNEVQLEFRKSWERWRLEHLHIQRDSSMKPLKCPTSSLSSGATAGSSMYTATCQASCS
# Experiment: qHTS of GLP-1 Receptor Inverse Agonists (Inhibition Mode); also: nearly all actives have a fitted effect of over 55% in size
# Conditions: HEK293 GLP-1R CRE-luciferase, luminescence, 24 h, GLP-1R form is constitutively active; series mostly up to 38.3 µM
# Outline: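 Cells are plated, allowed 12 hours at 37 deg C, then treated with compounds for 24 hr before luciferase detection reagent is added and luminescence is read after 12 min at room temperature. The HEK293 line carries constitutively active GLP-1R with a cAMP-responsive reporter.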
# Potency is read from the fitted curve at half-maximal effect; tags tell the direction and shape of the fitted curve.
row,SMILES,Potency
1,COc1ccc(C(C)=O)cc1Cn1c(C)c(C(=O)NCc2cccc(Cl)c2)sc1=O,inactive
2,Cc1cc2ccccc2n1CCNC(=O)COc1ccccc1,inactive
3,CC(Sc1nnc(-c2ccc(Cl)cc2Cl)n1Cc1ccccc1)C(=O)Nc1nccs1 (stereo unspecified),"inconclusive [inhibitor, partial curve, poor fit]"
4,COC(=O)c1ccc(-n2cc(-c3ccc(OC)cc3)[nH]c2=S)cc1,inactive
5,O=C(N/N=C/c1ccc([N+](=O)[O-])o1)c1ccc(NS(=O)(=O)c2cccs2)cc1,inactive
6,CC(=O)N1CC(C)Sc2ccc(S(=O)(=O)NCCc3ccc(C)cc3)cc21 (stereo unspecified),"inconclusive [inhibitor, single point]"
7,Cc1cc2cc3n(c2nn1)N=C(Cl)CC3,"inconclusive [inhibitor, single point]"
8,O=C(CSCc1ccccc1)N1CCN(Cc2ccc3c(c2)OCO3)CC1,"inconclusive [inhibitor, single point]"
9,O=S(=O)(c1ccc2ccccc2c1)n1nc(-c2ccco2)nc1NCc1ccc(F)cc1,"inconclusive [inhibitor, single point]"
10,Cc1ccc(NC(=O)c2ccc(OCC3CCCO3)cc2)cc1 (stereo unspecified),"inconclusive [inhibitor, single point]"
11,COc1ccc(NC(=O)Cc2ccc(Cl)cc2)cc1S(=O)(=O)N1CCCCC1,"inconclusive [inhibitor, partial curve, poor fit]"
12,Cc1ncc([N+](=O)[O-])n1Cc1cccc2ccccc12,"inconclusive [inhibitor, partial curve]"
13,COc1cccc(-c2cnc(C(O)c3ccc(Cl)cc3C)[nH]2)c1 (stereo unspecified),"inconclusive [inhibitor, single point]"
14,CC(C)(C)OC(=O)N1CCC(c2c(C(=O)NCc3ccccn3)cnn2-c2ccccc2)CC1,inactive
15,Cc1c(C(=O)O)oc2ccc(S(=O)(=O)N(CC(C)C)CC(C)C)cc12,"inconclusive [inhibitor, partial curve, poor fit]"
16,CC1CCCC(NC(=O)CCNC(=O)c2ccc(Cl)cc2)C1C (stereo unspecified),"inconclusive [inhibitor, partial curve, poor fit]"
17,Cc1ccc(C)c(NC(=O)c2ccccc2O)c1,"inconclusive [inhibitor, single point]"
18,CCOC(=O)c1c(NC(=O)/C=C/c2ccccc2)sc2c1CCCC2,inactive
19,S=c1nc(-c2ccco2)[nH][nH]1,inactive
20,Fc1ccc(CN2CCN(C(c3ccccc3)c3ccccc3)CC2)cc1,"inconclusive [inhibitor, partial curve, poor fit]"
21,CCOC(=O)C1(CCOc2ccccc2)CCN(Cc2cccs2)CC1,"inconclusive [inhibitor, partial curve, poor fit]"
22,COCCNC(=O)NC1(C(F)(F)F)Oc2ccc(Cl)cc2O1 (stereo unspecified),"inconclusive [inhibitor, single point]"

row,SMILES,Potency
1,O=C(Nc1cccc(S(=O)(=O)NC2=NCCC2)c1)c1cn(-c2ccccc2)nc1-c1ccc(F)cc1,"inconclusive [inhibitor, single point]"
2,CCCCNC(=O)c1onc(CSc2ccccc2)c1C(=O)NCCCC,"inconclusive [inhibitor, single point]"
3,Cc1ccc(SCCN2CCC(NC(=O)OCc3ccccc3)CCC2=O)cc1 (stereo unspecified),"inconclusive [inhibitor, single point]"
4,Cc1cccc(C)c1OC(=O)Cc1ccccc1[N+](=O)[O-],"inconclusive [inhibitor, single point]"
5,COc1ccc2c(c1)OC[C@H]1[C@H]2N2C(=O)c3cc(OC)c(OC)cc3NC(=O)[C@@]2(C)[C@H]1c1ccccc1,"inconclusive [inhibitor, single point]"
6,c1cc2c3c(cccc3c1)NC1(CCC3(CC1)Nc1cccc4cccc(c14)N3)N2,"inconclusive [inhibitor, partial curve, poor fit]"
7,COc1ccc(/C(C)=N/NC2=NCCN2)cc1Cl,"inconclusive [inhibitor, single point]"
8,C=CCNC(=O)c1c(CSc2ccc(Cl)cc2)noc1C(=O)NCCC,"inconclusive [inhibitor, single point]"
9,COc1ccc(C(CCN2CCOCC2)c2c(O)cc(OC)cc2OC)cc1 (stereo unspecified),inactive
10,CCOC(=O)c1c(C)sc2c1N(C(=O)CCl)c1cc(Cl)ccc1S2,inactive
11,CCOc1ccccc1NC(=O)COn1nnc2ccc(Cl)cc21,inactive
12,CN(C)S(=O)(=O)c1cccc(NC(=S)NC(=O)C2CCCCC2)c1,"inconclusive [inhibitor, partial curve]"
13,COCCN1C(=O)c2[nH]nc(-c3ccccc3O)c2C1c1ccc(OCc2ccccc2)c(OC)c1 (stereo unspecified),"inconclusive [inhibitor, partial curve, poor fit]"
14,Cc1ccc(CNC(=O)CSc2ccsc2[N+](=O)[O-])cc1,inactive
15,Cc1cccc(CN2C(=O)c3ccccc3Sc3ccc(C(=O)N4CCCC4)cc32)c1,"inconclusive [inhibitor, partial curve, poor fit]"
16,O=C(CSc1nnc(C2CC2)n1-c1ccccc1)NCCc1ccccc1,"inconclusive [inhibitor, single point]"
17,O=C(Nc1cc(Cl)cc(Cl)c1)c1ccc(F)c(S(=O)(=O)NC2CCCC2)c1,"inconclusive [inhibitor, single point]"
18,COc1ccc2nc(SCC(=O)Nc3ccc4c(c3)CCC4)[nH]c2c1,"inconclusive [inhibitor, single point]"
19,C[C@H](CO)N1C[C@H](C)[C@@H](CN(C)C(=O)NC2CCCCC2)Oc2ccc(NC(=O)Cn3cnnn3)cc2C1=O,inactive
20,O=S(=O)(Nc1nc(SCc2ccc(Cl)cc2)n[nH]1)c1ccccc1,"inconclusive [inhibitor, single point]"
21,CC(=O)NC(CCS(C)(=O)=O)C(=O)Nc1ccccc1Cl (stereo unspecified),inactive
22,Oc1ccc(C[C@H]2CN([C@@H](Cc3ccccc3)CN3CCC[C@@H]3CN3C(=S)NC[C@@H]3Cc3ccccc3)C(=S)N2CC2CCCCC2)cc1,"inconclusive [inhibitor, partial curve, poor fit]"

row,SMILES,Potency
1,CCN(CC)c1ccc(NC(=O)c2ccccc2F)cc1S(=O)(=O)Nc1ccccc1OC,"inconclusive [inhibitor, partial curve, poor fit]"
2,Cc1cc(C(=O)CN2CCC(C)CC2)c(C)n1-c1ccc(F)cc1,"inconclusive [inhibitor, partial curve, poor fit]"
3,Cn1c(=O)[nH]c(=O)c2[nH]c(N(Cc3ccccc3)Cc3ccccc3)nc21,"inconclusive [inhibitor, single point]"
4,Cc1cc(S(=O)(=O)Nc2ccc(N3CCOCC3)cc2)ccc1Br,"inconclusive [inhibitor, single point]"
5,O=C(CCl)Nc1ccccc1C(=O)c1ccccc1,"inconclusive [inhibitor, partial curve, poor fit]"
6,CCCNC(=O)c1ccc2c(c1)C1C3CCC(C3)C1C(c1ccccc1)N2 (stereo unspecified),"inconclusive [inhibitor, full curve, poor fit]"
7,Cc1cc(Nc2ccc(C)c(C)c2)n2cnnc2n1,inactive
8,COc1cc2c(-c3cc(F)cc(F)c3)c(-c3ccsc3)oc(=O)c2cc1OC,inactive
9,Cc1cccc(OCc2ccc(-c3nc(C#N)c(NCCN(C)C)o3)o2)c1,inactive
10,O=S(=O)(NC1=NCCC1)c1cccc(NC(=S)Nc2ccc(OC(F)F)cc2)c1,"inconclusive [inhibitor, single point]"
11,COc1ccccc1NC(=O)C(C)Sc1nnc2ccccn12 (stereo unspecified),inactive
12,Cc1ccc2cccc(NC(=O)COc3ccccc3[N+](=O)[O-])c2n1,inactive
13,CC(NCCN(C)C)C(=O)C12CC3CC(CC(C3)C1)C2 (stereo unspecified),"inconclusive [inhibitor, partial curve, poor fit]"
14,C=CC[C@@H](Cc1ccc(F)cc1)C(=O)OC[C@H]1CCCN1C(=O)[C@H](CC=C)CC(=O)N[C@H](CO)Cc1ccccc1,"inconclusive [inhibitor, single point]"
15,N#C/C(=C\c1ccc([N+](=O)[O-])cc1)C(=O)Nc1ccccc1O,"inconclusive [inhibitor, single point]"
16,CCC(C)c1ccccc1NC(=S)NC(=O)c1ccco1 (stereo unspecified),"inconclusive [inhibitor, partial curve, poor fit]"
17,O=C(CSc1nc(CCC2CCCC2)nc2ccccc12)NCc1ccc2c(c1)OCO2,"inconclusive [inhibitor, single point]"
18,COC(=O)c1ccccc1NC(=O)Cn1cc(S(=O)(=O)Cc2ccccc2F)c2ccccc21,inactive
19,Clc1cccc(Cc2c(-c3cccc(Cl)c3)nc3ccc(Cl)cn23)c1,"inconclusive [inhibitor, single point]"
20,c1ccc(COc2ccc(OCCCCN3CCCCC3)cc2)cc1,"inconclusive [inhibitor, single point]"
21,Cc1cc([N+](=O)[O-])nn1CC(=O)N/N=C/c1ccc(O)cc1O,"inconclusive [inhibitor, single point]"
22,CC(C)CCNC(=O)C1(C)CCN1Cc1ccc2ccccc2c1 (stereo unspecified),active: 10 µM
